# About 50,000 (12%) of roughly 420,000 compounds were called active. This list was built around the results that the source calls inconclusive (neither active nor inactive); the mix of calls is not that of the screen. The call rests on the fitted dose curve; in most records, active means well fitted inhibition curve with a large enough effect; inconclusive means small, poorly fitted or top-dose-only effect; inactive means flat fitted curve, though single readings scatter. Potencies of inconclusive entries are left out as doubtful fits.
# Assay: qHTS for Inhibitors of human tyrosyl-DNA phosphodiesterase 1 (TDP1): qHTS in cells in presence of CPT; further: nearly all actives have a fitted effect of over 55% in size
# Conditions: chicken DT40 Tdp1-/-;hTDP1 cells + 20 nM CPT, ATP luminescence, 48 h; activity change, negative = growth inhibition: at 46.2 µM (top of the series)
# Outline: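 Chicken DT40 Tdp1-/- cells stably complemented with human TDP1 were seeded at 400 cells/well in medium containing 20 nM camptothecin, exposed to pin-transferred compounds, and grown at 37 °C for at least 48 hr. Viability was read as ATP luminescence.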
# On the % scale 0 is the no-effect control and ±100 the full control effect; potency means the concentration at half of the fitted maximal effect; tags describe the fitted curve by direction and shape.
SMILES,"activity change, negative = growth inhibition",Potency
CCOc1ccc(NC(=O)COC(=O)CNC(=O)c2ccc(-c3ccccc3)cc2)cc1,inactive: -1.3%,
Cc1ccccc1-n1c(-c2ccncc2)n[nH]c1=S,inactive: -5.31%,
CCCc1nc(SCC(=O)c2ccccc2)c2c(=O)n(C)c(=O)n(C)c2n1,,"inconclusive [inhibitor, single point]"
CN(C)S(=O)(=O)c1ccc2c(c1)N(CC(=O)NCc1cccc(Br)c1)C(=O)CS2,,"inconclusive [inhibitor, single point]"
Nc1c(Cl)ncnc1N/N=C/c1ccncc1,inactive: -6.31%,
CCCCc1ccc(S(=O)(=O)NC(=O)C2(C)CCN2C(=O)C/C=C/c2ccccc2)cc1 (centres undefined),,"inconclusive [inhibitor, partial curve]"
CC(C)(C)c1cc(C(=O)NCc2ccco2)ccn1,inactive: -24.7%,
COc1ccccc1-c1nnc2n(CCc3ccccc3)c(=O)c3ccccc3n12,,"inconclusive [inhibitor, single point]"
Cc1ccc2c(c1)c1c(n2CC(O)Cn2c(C)nc3ccccc32)CCCC1 (centres undefined),,active: 23.1 µM
CCn1c(=N)c(C(=O)NC2CCCCC2)cc2c(=O)n3cccc(C)c3nc21,inactive: 3.28%,
O=c1cc2nc(-c3cccs3)nc(SCCOc3ccc(Cl)cc3)n2[nH]1,,"inconclusive [inhibitor, single point]"
O=C1CC(c2nnc(Cc3ccc(Cl)cc3)o2)CN1c1ccccc1 (centres undefined),,"inconclusive [inhibitor, single point]"
Cc1ccc(-c2nnc(NC(=O)c3ccc4c(c3)OCCO4)o2)c(C)c1,,"inconclusive [inhibitor, single point]"
N#Cc1nc(COc2ccccc2)oc1N1CCC(Cc2ccccc2)CC1,,"inconclusive [inhibitor, partial curve]"
CCOc1cccc2sc(N(CCN(CC)CC)C(=O)c3cccc([N+](=O)[O-])c3)nc12,,"inconclusive [inhibitor, single point]"
CC(C)=CCN1CCN(C/C(Cl)=C/c2ccccc2)CC1CCO (centres undefined),,"inconclusive [inhibitor, single point]"
COc1cccc(CNC(=O)CSCc2cnn(-c3ccccc3)c2-n2cccc2)c1,,"inconclusive [inhibitor, single point]"
COC(=O)C1=C(C)OC(N)=C(C#N)C1c1cc(OC)c(OCC(N)=O)cc1Cl (centres undefined),,"inconclusive [inhibitor, single point]"
COCCNC(=O)C(c1ccncc1)N(C(=O)c1sc(C)nc1C)c1cccc(C)c1 (centres undefined),inactive: -2.74%,
